Laboratory results reported in PubChem BioAssay AID485344 (National Center for Advancing Translational Sciences (NCATS), 2010).
The campaign covered roughly 340,000 compounds. About 6,900 (2%) were called active. Cut-off read from the data, not from the text of the source: active = inhibition above about 30%; inactive = below that, where a call was filed. The entries are a selection whose mix differs from that of the whole data set. The source gives no active or inactive call for entries shown without one.

biological target: D(2) dopamine receptor (Homo sapiens) (UniProt P14416); experiment: HTS Assay for Allosteric Antagonists of the Human D2 Dopamine Receptor: Primary Screen for Antagonists; settings: HEK293 TREx D2 cells, calcium flux, dopamine EC80; at 10 µM; stronger effect = higher value; note: 0% is about no effect
UniProt P14416, sequence (P14416 whole entry, looked up): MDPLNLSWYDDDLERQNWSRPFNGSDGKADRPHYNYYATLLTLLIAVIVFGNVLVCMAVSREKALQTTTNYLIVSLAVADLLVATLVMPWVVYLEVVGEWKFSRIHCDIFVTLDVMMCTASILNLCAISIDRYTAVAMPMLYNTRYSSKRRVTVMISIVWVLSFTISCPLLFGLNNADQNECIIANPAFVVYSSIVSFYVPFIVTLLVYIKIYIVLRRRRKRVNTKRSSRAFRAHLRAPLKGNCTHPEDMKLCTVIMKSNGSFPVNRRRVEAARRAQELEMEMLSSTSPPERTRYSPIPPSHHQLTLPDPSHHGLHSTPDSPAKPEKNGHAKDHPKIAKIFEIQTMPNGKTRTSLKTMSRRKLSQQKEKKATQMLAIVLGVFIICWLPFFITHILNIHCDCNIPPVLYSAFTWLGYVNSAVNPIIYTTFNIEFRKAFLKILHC
Method in brief: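 Measurement of antagonist activity uses fluorescent calcium dye in inducible HEK293 T-REx D2 cells: 10 s baseline, compound addition with 180 s read, EC80 dopamine addition with a further 180 s read.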

Row | Structure (SMILES) | inhibition
1 | CC1CCN(CCCCOc2cccc(Br)c2)CC1 | active: 91.8%
2 | COc1cc2c(=O)c(C(=O)c3ccc(C)c(C)c3)cn(Cc3ccc(F)cc3)c2cc1OC | -25.7%
3 | Cc1nc(SCC(=O)Nc2ccccc2C)cc(-c2ccccc2)n1 | -11%
4 | Cc1ccccc1NC(=O)CSc1cn(CC(=O)N2CCCCCC2)c2ccccc12 | -18.3%
5 | Cc1cccc(NC(=O)C2CCCN(C(=O)Nc3ccc(F)cc3)C2)c1C (stereo not drawn) | active: 36%
6 | CCSc1nnc2c(n1)OC(c1cc(OC)c(OC)c(OC)c1)Nc1ccccc1-2 (stereo not drawn) | 3.92%
7 | CCOc1cc(CNC(=O)Cn2c(=O)c3cccn3c3ccc(F)cc32)cc(OCC)c1OCC | 5.96%
8 | CCOC(=O)c1c(C)[nH]c(C)c1S(=O)(=O)NCC(=O)Nc1ccc(C)c(N(C)C)c1 | 0.12%
9 | COc1c(C)cc(Br)cc1C(=O)Nc1ccc(-c2nc3ncccc3o2)cc1 | 13.1%
10 | CCOc1ccc(NC(=O)Cn2c(=O)n(-c3cccc(Cl)c3)c(=O)c3c2c2cc(C)ccc2n3C)cc1 | 20.4%
11 | COc1ccc(S(=O)(=O)Nc2cccc(-c3ccc(N4CCC(C)CC4)nn3)c2)c(OC)c1 | 22.5%
12 | COc1cc(NC(=O)c2ccc3oc(=O)c(S(=O)(=O)c4ccccc4)cc3c2)cc(OC)c1 | 24.8%
13 | CCOc1cccc(C2c3[nH]c4ccccc4c3CCN2C(=O)CSc2ccccc2)c1 (stereo not drawn) | 8.3%
14 | Cc1cccc(C(=O)N2CCc3cc(CNC(=O)COc4ccc(Cl)cc4)ccc32)c1 | 21.7%
15 | Cc1cc(NC(=O)c2cc(-c3ccc(Cl)cc3)on2)n(-c2ccccc2)n1 | -20.4%
16 | COC(=O)c1cc2oc3ccccc3c2n1CC(=O)Nc1ccc(C)c(F)c1 | -16.7%
17 | COc1ccc(CNC(=O)Cc2ccc(NC(=O)N3CCSc4ncccc43)cc2)cc1OC | 2.75%
18 | COc1ccc(-c2cc(C(=O)Nc3cccnc3)no2)cc1OC | -8.63%
19 | Cc1cccc(NC(=O)c2cn(-c3ccccc3)nc2-c2ccccc2)c1 | active: 40.3%
20 | Cc1ccc(-n2ncc3c(NCCO)ncnc32)cc1Cl | 7.11%
21 | O=C(COC(=O)c1cc([N+](=O)[O-])ccc1N1CCOCC1)c1ccc(OC(F)F)cc1OC(F)F | active: 44%
22 | Cc1nc(N2CCCC2)c2c(C(=O)N3CCN(c4cc(Cl)ccc4C)CC3)c(C)oc2n1 | -13.2%
23 | Cc1ccc(C(=O)c2cn(Cc3ccccc3)c3nc(C)ccc3c2=O)cc1 | 5.78%
24 | CCn1c(=O)c(=O)n(CC)c2cc(S(=O)(=O)Nc3ccc(C)cc3)ccc21 | -2.78%

Row | Structure (SMILES) | inhibition
25 | COc1ccc(/C=N/NC(=O)C[n+]2ccccc2)c(OC)c1OC | active: 35.1%
26 | COC(=O)c1ccc(NC(=O)Cn2cnc3c2c(=O)n(C)c(=O)n3C)cc1 | -9.96%
27 | O=C(Cn1c(=O)c2cccn2c2ccccc21)NCc1ccccc1F | 4.39%
28 | CN1CCC(NC(=O)c2cccc(Oc3ccccc3)c2)CC1 | active: 69.8%
29 | Cc1cccc(N(CC(=O)NCCSCc2ccccc2)S(=O)(=O)c2ccccc2)c1C | -10.8%
30 | CCc1cccc(C)c1NC(=O)C1CCCN1S(=O)(=O)c1cccc2nsnc12 (stereo not drawn) | -2.07%
31 | CCCCN(C)C(=O)c1ccc2c(c1)N(Cc1cccc(F)c1)C(=O)c1ccccc1S2 | -2.53%
32 | CCOC(=O)c1scc(-c2ccc(C)cc2)c1S(=O)(=O)Nc1cc(OC)ccc1OC | 7.81%
33 | O=C(CCCCCCN1C(=O)c2ccccc2C1=O)NC1CCCCC1 | active: 32.5%
34 | Cc1cc(C)c(/C=C/c2onc(C)c2S(=O)(=O)N2CCC(C(=O)NCCc3ccccc3)CC2)c(C)c1 | 7.37%
35 | Cc1ccc(OCCCn2c(-c3ccc(Cl)cc3)nc3ccccc3c2=O)c(C)c1 | 17.8%
36 | O=C(NC(NC(=S)Nc1cccc(Cl)c1)C(Cl)(Cl)Cl)OCc1ccccc1 (stereo not drawn) | active: 77.9%
37 | Cc1ccc(NC(=O)C2CCCN(S(=O)(=O)c3c(C)noc3C)C2)cc1 (stereo not drawn) | -13.7%
38 | COc1ccc(NC(=O)c2oc3ccccc3c2NC(=O)C2CCCCC2)c(OC)c1 | 12.8%
39 | Clc1ccc(-n2c(Cc3ccccc3)nnc2SCc2nc(-c3cccs3)no2)cc1 | -0.845%
40 | Cc1ccc(S(=O)(=O)c2nc(-c3ccc(F)cc3)oc2N2CCN(c3ccccc3)CC2)cc1 | 2.38%
41 | CCN(CC)c1ccc(C2Nc3ccccc3-c3cc(C)nn32)cc1 (stereo not drawn) | 16.2%
42 | CC(=O)C1=C(O)C(=O)N(c2ccc(Br)cn2)C1c1ccccc1[N+](=O)[O-] (stereo not drawn) | active: 31.2%
43 | COc1ccc(CNC(=O)c2cccn2-c2nnc(N3CCCC3)s2)c(OC)c1 | 1.03%
44 | COc1ccc(C2(CNC(=O)C(=O)Nc3ccccc3C)CCCC2)cc1OC | 7.4%
45 | CCOC(=O)c1ccc(Nc2nn3c(=O)c4ccccc4nc3s2)cc1 | -3.06%
46 | COc1cc(OC)c(NC(=O)N2CCC(CN3CCCC3)CC2)cc1Cl | 5.37%
47 | COc1ccc(OC)c(NC(=O)c2ccc3c(Cl)c4c(nc3c2)CCCC4)c1 | 3.95%
48 | CCCCN(C)C(=O)Cn1cnc2sc(C)c(S(=O)(=O)N3CCC(C)CC3)c2c1=O | 5.23%

Row | Structure (SMILES) | inhibition
49 | Cc1ccc(CNc2ccc3cc(S(=O)(=O)N4CCCCC4)ccc3n2)cc1 | 8.44%
50 | Cc1ccc(CNC(=O)c2ccc(CS(=O)(=O)Cc3ccc(C)cc3)o2)cc1 | -2.75%
51 | Cc1nn(-c2ccccc2)c2c1N(CC(=O)N1CCN(c3ccccc3F)CC1)C(=O)CS2 | -2.68%
52 | COc1ccccc1Nc1ncnc2scc(-c3ccc(F)cc3)c12 | -4.55%
53 | CC1CN(S(=O)(=O)c2ccc(F)cc2)C(C)N1C(=O)N1CCOCC1 (stereo not drawn) | active: 32.1%
54 | COc1ccc(OC)c(NC(=O)C(C)N2c3cccc4cccc(c34)S2(=O)=O)c1 (stereo not drawn) | active: 33.6%
55 | COc1ccc(Nc2nn(-c3ccc(OC(F)(F)F)cc3)nc2C(C)=O)cc1 | -2.14%
56 | COc1ccc(NC(=O)CC2Nc3ccccc3NC2=O)cc1 (stereo not drawn) | 2.24%
57 | CC(=O)c1ccc(N2CCN(C(=O)c3cccc(Oc4ccccc4)c3)CC2)cc1 | active: 35.3%
58 | Nc1nn(-c2ccccc2)nc1C(=O)OCc1c(F)cccc1Cl | -19.9%
59 | Cc1ccc(N(Cc2cccs2)C(=O)c2ccco2)cc1 | 15.2%
60 | O=C(Nc1ccc2nc3n(c(=O)c2c1)CCCCC3)c1cccc(C(F)(F)F)c1 | 9.07%
61 | O=C(CCC1N=C2c3ccccc3N=C(SCC(=O)Nc3ccc(F)cc3)N2C1=O)NCc1ccco1 (stereo not drawn) | 0.449%
62 | COc1cc(Nc2nc(SCC(=O)c3ccc(Cl)c(Cl)c3)nc3ccccc23)cc(OC)c1 | -15.1%
63 | CC(C)N(C(=O)Cn1cc(S(=O)(=O)Cc2ccc(Cl)cc2)c2ccccc21)C(C)C | 18.1%
64 | COc1ccc(-n2c(SCC(=O)NCc3ccccc3)nc3c([nH]c4ccccc43)c2=O)cc1 | -11.6%
65 | COCCn1c(=O)[nH]c2cc(C(=O)NCc3ccccc3Cl)ccc2c1=O | 19.6%
66 | CCOc1ccc(NC(=O)c2c(Nc3ccc(OC)cc3OC)sc(C(=O)c3ccc(Cl)cc3)c2N)cc1 | -1.9%
67 | CCOc1ccc(NC(=O)CSc2nc(-c3ccc(OC)cc3)nc3c2Cc2c(CO)cnc(C)c2O3)cc1 | -17.2%
68 | CCOC(=O)c1cccc(NC(=O)c2cc3sccc3n2Cc2ccc(Cl)cc2)c1 | -10.2%
69 | CCOc1ccc(CCNC(=O)CCc2cn(Cc3ccccc3F)c3ccccc23)cc1OCC | 1.93%
70 | CCOc1ccc(/C=N/OCC(=O)NCc2ccc3c(c2)OCO3)cc1OC | active: 31.9%
71 | CCN(c1ncnc2c1cnn2-c1ccc(C)cc1)C1CCCCC1 | -9.95%
72 | Cc1cc(Nc2ccc(C)c(Cl)c2)n2nc(Cc3ccccc3)nc2n1 | -18.4%

Row | Structure (SMILES) | inhibition
73 | COc1ccccc1CNS(=O)(=O)c1c(C)nc2scc(C)n2c1=O | -3.78%
74 | CC1OC(O[C@H]2CC[C@]3(C)C4C=C[C@]56OC[C@@]7(CC[C@@H](C)[C@H](C)C75)[C@H](O)C[C@@]6(C)[C@]4(C)CC[C@H]3C2(C)C)C(OC2OC(CO)C(O)C(O)C2OC2OCC(O)C(O)C2O)C(O)C1O (stereo partly drawn) | active: 35.1%
75 | CCC(CO)NC(=O)C(=O)Nc1c2c(nn1-c1ccc(F)cc1)CSC2 (stereo not drawn) | 3.09%
76 | CC(C)(C)c1ccc(S(=O)(=O)NCc2ccc3c(c2)CCN3C(=O)c2ccccc2)cc1 | -12.1%
77 | O=C(Cn1c(=O)ccc2cc(S(=O)(=O)N3CCCC3)ccc21)NCc1ccc(Cl)cc1 | 18.1%
78 | COc1cc(-c2noc(-c3ccc(N4CCN(C)CC4)c([N+](=O)[O-])c3)n2)cc(OC)c1OC | 2.26%
79 | O=C(c1ccc(Cl)cc1)N1CCC(c2ccncc2)CC1 | -14.2%
80 | CCN(CC)S(=O)(=O)c1ccc2nc(NC(=O)c3cccnc3)sc2c1 | 1.8%
81 | CCOC(=O)c1cc(S(=O)(=O)NCc2ccccc2)[nH]n1 | 6.4%
82 | CC1CCCCN1C(=O)C12CCC(C)(/C(=N/O)C1)C2(C)C (stereo not drawn) | active: 34.6%
83 | Cc1ccc(NC(=O)CN(C)C(=O)c2cccc(S(=O)(=O)NCc3ccccc3)c2)cc1 | active: 45.9%
84 | CC1=C(C(=O)Nc2ccccc2)C(c2ccncc2)n2nc(SCc3ccccc3Cl)nc2N1 (stereo not drawn) | -13.8%
85 | O=C(Cn1c(=O)n(Cc2ccco2)c(=O)c2ccccc21)Nc1ccc(Cl)cc1Cl | 0.542%
86 | Cc1ccc(S(=O)(=O)Cc2ccc(C(=O)N3CCN(c4cccc(C)c4C)CC3)o2)cc1 | -22.6%
87 | COc1ccc(C(=O)OCc2cc(=O)n3nc(-c4cccs4)sc3n2)cc1 | -11.9%
88 | CCC(Cn1nnc2ccccc2c1=O)NC(=O)Nc1cccc(C)c1C (stereo not drawn) | -3.89%
89 | O=[N+]([O-])c1cc(-c2nc(-c3ccccc3)no2)ccc1N1CCCCC1 | -12.1%
90 | Cc1ccc(NC(=O)C2CCCN(c3nnc(C)c4c(C)n(-c5ccccc5)nc34)C2)c(Cl)c1 (stereo not drawn) | -12%
91 | CCC(=O)N1CCc2cc(Br)cc(S(=O)(=O)CCC(=O)N3CCN(c4cccc(C(F)(F)F)c4)CC3)c21 | -27%
92 | Cc1ccc(CNC(=O)Cc2c(C)c3cc4c(C)coc4cc3oc2=O)cc1 | -13.4%
93 | O=C(COc1ccccc1Cl)OCc1cc(=O)n2nc(-c3cccs3)sc2n1 | 10.9%
